53 compounds from publication PMC4336329 (PLoS ONE, 2015) can be followed below.

Each structure is given as a SMILES string. The campaign covered roughly 310,000 compounds. About 2,200 (0.71%) showed an effect of 50% or more. The effect is printed as a negative number. This is one part of the list.

In the test the target is human ether-à-go-go-related gene (hERG) potassium channel (human, UniProt Q12809). The test is described as follows: primary screen, population patch clamp on CHO cells stably expressing hERG.
Sequence of human ether-à-go-go-related gene (hERG) potassium channel (Q12809 whole entry, looked up): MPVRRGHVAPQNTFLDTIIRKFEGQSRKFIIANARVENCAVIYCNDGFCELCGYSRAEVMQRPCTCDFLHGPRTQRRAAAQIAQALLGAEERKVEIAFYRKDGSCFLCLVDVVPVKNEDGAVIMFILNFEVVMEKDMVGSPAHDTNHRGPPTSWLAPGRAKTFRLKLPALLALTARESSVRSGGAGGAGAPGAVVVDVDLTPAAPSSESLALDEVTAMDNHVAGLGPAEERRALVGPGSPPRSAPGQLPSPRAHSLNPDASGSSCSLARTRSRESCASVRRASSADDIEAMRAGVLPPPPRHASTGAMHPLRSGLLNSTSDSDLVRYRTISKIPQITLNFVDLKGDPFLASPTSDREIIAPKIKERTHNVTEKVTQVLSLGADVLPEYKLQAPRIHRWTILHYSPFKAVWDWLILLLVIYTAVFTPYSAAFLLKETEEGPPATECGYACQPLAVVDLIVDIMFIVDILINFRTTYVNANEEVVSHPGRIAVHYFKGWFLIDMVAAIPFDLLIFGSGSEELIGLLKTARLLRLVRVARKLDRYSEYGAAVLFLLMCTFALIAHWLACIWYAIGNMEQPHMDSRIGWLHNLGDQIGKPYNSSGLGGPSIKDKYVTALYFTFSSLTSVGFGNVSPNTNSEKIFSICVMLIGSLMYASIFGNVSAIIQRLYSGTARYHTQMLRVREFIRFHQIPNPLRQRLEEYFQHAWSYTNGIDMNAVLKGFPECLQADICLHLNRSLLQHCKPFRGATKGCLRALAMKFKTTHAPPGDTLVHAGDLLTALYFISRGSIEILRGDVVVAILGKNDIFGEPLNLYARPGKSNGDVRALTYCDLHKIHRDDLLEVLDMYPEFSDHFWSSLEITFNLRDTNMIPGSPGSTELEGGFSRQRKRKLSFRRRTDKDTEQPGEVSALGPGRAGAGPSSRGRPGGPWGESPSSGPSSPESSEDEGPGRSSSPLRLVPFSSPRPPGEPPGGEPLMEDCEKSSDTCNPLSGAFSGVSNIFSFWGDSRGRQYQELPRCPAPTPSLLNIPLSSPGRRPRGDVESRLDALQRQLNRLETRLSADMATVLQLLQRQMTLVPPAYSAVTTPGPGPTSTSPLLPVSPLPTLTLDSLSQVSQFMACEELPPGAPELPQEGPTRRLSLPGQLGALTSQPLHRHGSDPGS
Take `Cc1ccc(NC(=O)c2cc(-c3cccs3)on2)cc1C`: the “hERG current change (%, negative = inhibition) at 1uM” value amounted to 8.88%.
To `Cc1nn(-c2nc(-c3ccco3)cc(C(F)(F)F)n2)c(C)c1Cl` belongs 3.73%; to `c1ccc(-n2ncc3c(NCCN4CCOCC4)ncnc32)cc1`, -8.96%.
The result for `CNC(=S)N(CCCO)Cc1cc2cc3c(cc2[nH]c1=O)OCO3` reads 16.6%.
The result for `O=C(CN1C(=O)c2ccccc2S1(=O)=O)c1ccc(OC(F)F)cc1` reads -10%; that for `COc1ccc(-n2nnc3c(SCC(=O)N4CCCc5ccccc54)ncnc32)cc1`, 6.31%.
In the case of `CCCc1cc(=O)[nH]c(SCC(=O)N2CCN(S(=O)(=O)c3ccc(C)cc3)C2)n1`, the “hERG current change (%, negative = inhibition) at 1uM” value was found to be 10.2%.
The result for `CCCn1c(CC)nc([N+](=O)[O-])c1Sc1ccc(F)cc1` reads 3.48%; that for `CC(C)OP(=O)(OC(C)C)C(Nc1ccc([N+](=O)[O-])cc1)c1cccc([N+](=O)[O-])c1` (centres unmarked), -4.93%; that for `CCCOc1ccc(/C(O)=C2/C(=O)C(=O)N(CCCOC)C2c2ccncc2)cc1` (centres unmarked), -7.78%.
To `Cc1ccnc(NC(=O)CN2C(=O)c3ccccc3C2=O)c1` belongs 5.12%.
For `COc1ccccc1NC1=NC2(CCCC2)N=C(N)N1`, the “hERG current change (%, negative = inhibition) at 1uM” value is 5.82%.
To `C=C(C)COc1ccc(-c2ncncc2-c2ccc(Br)cc2)c(O)c1` belongs 11.7%.
In the case of `COCCCNC(=O)c1cc2cc(Br)ccc2oc1=O`, the “hERG current change (%, negative = inhibition) at 1uM” value was 4.97%.
The result for `COC(=O)C1=C(c2cc3ccccc3o2)C[C@@H]2CC[C@H]1N2C(=O)NCc1cccc2ccccc12` reads 6.68%.
The result for `CSCCC(NS(=O)(=O)c1ccc2c(c1)OCCO2)C(=O)NCCc1ccccn1` (centres unmarked) reads 10.9%; that for `COc1ccc(C(=O)/C=C/Nc2cccc(O)c2)cc1`, 12%.
On to `Cc1ccc(NC=C(S(=O)(=O)c2ccccc2)S(=O)(=O)c2ccccc2)c(C)c1`, for which the “hERG current change (%, negative = inhibition) at 1uM” value is 13.8%.
The result for `CCn1cnc2c1c(=O)n(CC(=O)Nc1ccc(C(N)=O)cc1)c(=O)n2Cc1ccccc1` reads 12.3%; that for `COc1ccc(Cn2c(=S)[nH]c3ccsc3c2=O)cc1`, 2.05%.
To `Nc1ncn[nH]1` belongs 14.6%; to `CCOc1ccccc1NC(=O)CCn1ccnc1`, 13.9%; to `O=C(CNS(=O)(=O)c1ccccc1)NCc1ccco1`, 14.8%.
To `CC(C)(C)C(=O)OC/C(N)=N/OC(=O)c1ccc(Cl)cc1` belongs 8.08%; to `N#CCC(=O)N/N=C/c1cn(Cc2ccc3ccccc3c2)c2ccccc12`, 18.9%; to `CN1CCN2c3ncccc3Cc3ccccc3C2C1` (centres unmarked), 0.834%.
Consider `CC(Oc1ccc2ccc(=O)oc2c1)C(=O)c1ccccc1` (centres unmarked), for which the “hERG current change (%, negative = inhibition) at 1uM” value turned out to be 0.0784%.
To `O=C(Nc1ccccc1C(=O)O)c1cc(S(=O)(=O)Nc2cccc(F)c2)ccc1Cl` belongs 14.4%.
The result for `COc1ccccc1-c1c(C#N)c(N)nc2c1CCC2` reads 10.4%.
To `COc1ccc(-n2c(=O)[nH]c3cc(C(=O)NCCc4ccc(OC)c(OC)c4)ccc3c2=O)c(OC)c1` belongs 15.2%; to `COc1ccc(C(=O)N/N=C/c2ccc(OC(=O)c3cccc4ccccc34)c([N+](=O)[O-])c2)cc1`, 9.91%; to `NC(=O)[C@@H]1CCOc2c(I)cc([N+](=O)[O-])cc2C(=O)N[C@@H](CO)C(=O)NCC(=O)N1`, 19.2%.
`COc1cc(CC(=O)O)c([N+](=O)[O-])cc1OC`: the “hERG current change (%, negative = inhibition) at 1uM” value was 1.43%.
The result for `Cc1c(NC(=O)C(C)OC(=O)/C=C/c2ccccc2)c(=O)n(-c2ccccc2)n1C` (centres unmarked) reads 13.7%; that for `CC1CCCC2(C1)NC(=S)N(c1ccccc1)N2` (centres unmarked), 6.88%; that for `Cc1ccc(C)c(SCC(=O)OCC(=O)NCCNC(=O)COC(=O)CSc2cc(C)ccc2C)c1`, 9.88%.
The result for `CC(C)CNC(=O)c1cccc(NC(=O)c2ccc3c(c2)C(=O)N(C)C3=O)c1` reads 5.43%.
In the case of `CN(C)S(=O)(=O)c1cc(NC(=O)COC(=O)C2COc3ccccc3O2)ccc1Cl` (centres unmarked), the “hERG current change (%, negative = inhibition) at 1uM” value was 9.63%.
Take `CCN(CC(=O)Nc1ccc(C)c(S(=O)(=O)N2CCOCC2)c1)Cc1ccccc1`: the “hERG current change (%, negative = inhibition) at 1uM” value is recorded as 5.21%.
`COc1cc(OC)cc(C(=O)NCC(=O)Nc2ccc(-c3ccccc3)cc2)c1`: the “hERG current change (%, negative = inhibition) at 1uM” value worked out at 10.6%.
Turning to `O=c1[nH]c2cc3c(cc2cc1CN(CCO)S(=O)(=O)c1ccccc1Cl)OCCO3`, the “hERG current change (%, negative = inhibition) at 1uM” value is on record as 11.4%.
The result for `c1ccc(C(c2nnnn2Cc2cccs2)N2CCN(C3CCCC3)CC2)cc1` (centres unmarked) reads -20.8%.
Take `O=C(Nc1ccc(Cl)c(S(=O)(=O)N2CCOCC2)c1)c1n[nH]c(=O)c2ccccc12`: the “hERG current change (%, negative = inhibition) at 1uM” value amounted to 11.7%.
To `CCN1C(=O)[C@H]2[C@@H](c3ccc(C)cc3)N3C(=O)N(c4ccc(C)cc4)C(=O)[C@@]3(Cc3ccccc3)[C@H]2C1=O` belongs 13.7%; to `CCC(=O)NC(=S)Nc1ccc(NC(=O)c2cc3ccccc3o2)c(OC)c1`, 13.6%.
For the compound `O=C(Nc1ccc(NC(=O)c2ccc(Cl)cc2Cl)cc1)c1ccc2c(c1)OCO2`, the “hERG current change (%, negative = inhibition) at 1uM” value is on record as 19.1%.
To `NC(=O)COc1ccccc1C1=NO[C@@](CC(=O)O)(C(=O)Nc2ccc3c(c2)OCCO3)C1` belongs 12.5%; to `COc1ccc(CN(C)C(C)C(=O)Nc2ccc([N+](=O)[O-])cc2Cl)cc1OC` (centres unmarked), -6.27%; to `COC(=O)Cc1c(C)c2ccc(OCC(=O)N3CCCC(C)C3)c(C)c2oc1=O` (centres unmarked), 8.94%.
The result for `COc1c(Br)cc(Br)cc1/C=N/NC(=O)c1cccnc1` reads 7.26%; that for `CCOC(=O)c1c(NC(=O)CSc2nnc(Cc3ccccc3)o2)sc(C(C)=O)c1C`, -16.3%; that for `CCOc1ccc(-n2c(=O)c3sccc3n(Cc3cccc([N+](=O)[O-])c3)c2=O)cc1`, 2.74%.
Take `C[C@H](NC(=O)c1nc[nH]c1C(=O)NCc1ccccc1)C(=O)OC(C)(C)C`: the “hERG current change (%, negative = inhibition) at 1uM” value was -3.26%.
